{"source": "PubChem BioAssay AID485294", "about": "(National Center for Advancing Translational Sciences (NCATS), 2010)", "note": "Out of some 370,000 compounds screened, about 150 (0.041%) were called active. Inconclusive means that the source gave no clear call. Such entries were picked first, then a sample of the others. Calls come from the whole dose curve; as a rule, active = well fitted inhibition curve with a large enough effect; inconclusive = small, poorly fitted or top-dose-only effect; inactive = flat fitted curve, though single readings scatter. Potencies of inconclusive entries are left out as doubtful fits. Potency is the fitted concentration of half-maximal effect; tags give direction and shape of the fitted curve."}
{"molecular_target": "Beta-lactamase (Escherichia coli (strain K12)) (UniProt P00811)", "sequence (P00811 whole entry, looked up)": "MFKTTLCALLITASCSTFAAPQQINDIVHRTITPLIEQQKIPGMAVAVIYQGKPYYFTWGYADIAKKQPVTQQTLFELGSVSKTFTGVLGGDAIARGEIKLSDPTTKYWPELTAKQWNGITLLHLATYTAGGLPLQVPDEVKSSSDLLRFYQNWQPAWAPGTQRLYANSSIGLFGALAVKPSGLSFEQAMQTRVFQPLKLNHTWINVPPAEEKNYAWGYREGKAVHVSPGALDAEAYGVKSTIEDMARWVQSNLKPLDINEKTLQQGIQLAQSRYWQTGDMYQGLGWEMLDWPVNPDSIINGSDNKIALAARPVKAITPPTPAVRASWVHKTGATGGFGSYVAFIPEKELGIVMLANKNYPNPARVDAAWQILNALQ", "experiment": "qHTS Inhibitors of AmpC Beta-Lactamase (assay with detergent); note: nearly all actives have a fitted effect of over 25% in size", "conditions": "AmpC hydrolysis of nitrocefin, absorbance 480 nm, 0.01% Triton; series mostly up to 114 µM", "in_short": "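20 mM phosphate pH 7.0 + 0.01% (detergent screen) or 0.0001% Triton X-100; 5.3 nM AmpC reagent; cpd preinc 15 min RT; nitrocefin (800 uM stock) to start; A480 q20 s × 4 min; Activity was normalised to no-enzyme and no-compound control wells.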"}
{"smiles": "Cc1c(NC(=O)CN2CC(C)OC(C)C2)c(=O)n(-c2ccccc2)n1C", "note": "(stereo not given)", "Potency": "inconclusive [inhibitor, full curve, poor fit]"}
{"smiles": "CCc1nnc2n1N=C(c1ccc(Cl)cc1Cl)CS2", "Potency": "inactive"}
{"smiles": "CCOC(=O)c1c(NC(=O)CSc2nnc(C)s2)sc2c1CCC(CC)C2", "note": "(stereo not given)", "Potency": "inconclusive [inhibitor, single point]"}
{"smiles": "CCOC(=O)COc1cc2c3c(c(=O)oc2cc1C)CCCC3", "Potency": "inconclusive [inhibitor, full curve]"}
{"smiles": "CCCn1nc(NC(=O)c2ccco2)c2cc3ccccc3nc21", "Potency": "inconclusive [inhibitor, full curve, poor fit]"}
{"smiles": "C=CCOc1c(Cl)cc(C2NC(=O)NC(C)=C2C(=O)OC)cc1Cl", "note": "(stereo not given)", "Potency": "inactive"}
{"smiles": "Cc1ccccc1CNC(=O)Cc1cccs1", "Potency": "inconclusive [inhibitor, partial curve, poor fit]"}
{"smiles": "Cc1[nH]c2ccccc2c1SCCNC(=O)c1ccc(S(=O)(=O)N2CCCC2)cc1", "Potency": "inconclusive [inhibitor, partial curve, poor fit]"}
{"smiles": "Brc1c(NC2=NCCN2)ccc2nccnc12", "Potency": "inconclusive [inhibitor, full curve, poor fit]"}
{"smiles": "CC(NC(=O)c1ccc(NC2=NC3CS(=O)(=O)CC3S2)cc1)c1ccccc1", "note": "(stereo not given)", "Potency": "inconclusive [inhibitor, full curve]"}
{"smiles": "OCCCc1nc2n(n1)C(c1cccs1)C=C(c1ccccc1)N2", "note": "(stereo not given)", "Potency": "inactive"}
{"smiles": "CC(=O)c1c(C)[nH]c(C(=O)OCC(=O)Nc2cccc(S(=O)(=O)N3CCCC3)c2)c1C", "Potency": "inconclusive [inhibitor, full curve]"}
{"smiles": "Cc1cc(C)c([N+](=O)[O-])cc1-c1ccc(/C=N/NC(=O)c2nonc2N)o1", "Potency": "inconclusive [inhibitor, single point]"}
{"smiles": "CN(C)S(=O)(=O)c1ccc(NC(=O)C2CC(=O)N(Cc3ccccc3Cl)C2)cc1", "note": "(stereo not given)", "Potency": "inconclusive [inhibitor, partial curve]"}
{"smiles": "Cc1ccc(/C=N/NS(=O)(=O)c2ccccc2)o1", "Potency": "inconclusive [inhibitor, full curve]"}
{"smiles": "Cc1ccc(-c2cc(C(=O)N/N=C/C(Br)=C/c3ccccc3)n[nH]2)o1", "Potency": "inconclusive [inhibitor, partial curve, poor fit]"}
{"smiles": "c1csc(CN2CCN(Cc3cccs3)C2c2cccs2)c1", "Potency": "inconclusive [inhibitor, full curve]"}
{"smiles": "O=C(Nc1cccs1)Nc1ccc(Br)cc1F", "Potency": "inactive"}
{"smiles": "CCOC(=O)C1CCCN(C(=O)c2ccc(CNS(=O)(=O)c3ccc(C)cc3)cc2)C1", "note": "(stereo not given)", "Potency": "inactive"}
{"smiles": "CN(C)c1oc(COc2ccc(F)cc2)nc1C#N", "Potency": "inconclusive [inhibitor, full curve]"}
{"smiles": "N#Cc1ccc(C(=O)Nc2ccc(S(=O)(=O)NC3=NCCCCC3)cc2)cc1", "Potency": "inconclusive [inhibitor, full curve, poor fit]"}
{"smiles": "CCOC(=O)c1c(C)nc(C(Cl)(Cl)Cl)nc1N", "Potency": "inactive"}
{"smiles": "O=c1c2cc3c(=O)n(CC4CCCO4)c(=O)c3cc2c(=O)n1CC1CCCO1", "note": "(stereo not given)", "Potency": "inconclusive [inhibitor, single point]"}
{"smiles": "O=C(NCc1cccs1)c1cc(-c2ccccc2)nc2ccccc12", "Potency": "inconclusive [inhibitor, full curve, poor fit]"}
{"smiles": "CCCc1nc(SCc2cc(=O)c3ccc(C)c(C)c3[nH]2)n[nH]1", "Potency": "inactive"}
{"smiles": "C#CCn1cc(/C=N/NC(=O)c2cc3ccccc3o2)c2ccccc21", "Potency": "inconclusive [inhibitor, partial curve, poor fit]"}
{"smiles": "O=C(NCCO)c1ccc2nc(Cc3cccc(Cl)c3)oc2c1", "Potency": "inconclusive [inhibitor, partial curve]"}
{"smiles": "O=C(c1cc2ccccc2oc1=O)N(Cc1ccco1)Cc1cccs1", "Potency": "inconclusive [inhibitor, partial curve]"}
{"smiles": "COc1ccc(NC(=O)c2cc(-c3ccc(C)o3)nc3ccccc23)cc1OC", "Potency": "inactive"}
{"smiles": "CCN(Cc1ccncc1)C(=S)NCc1ccccc1", "Potency": "inconclusive [inhibitor, full curve, poor fit]"}
{"smiles": "Cc1onc(C(=O)N2CCN(Cc3ccccc3)CC2)c1[N+](=O)[O-]", "Potency": "inconclusive [inhibitor, full curve, poor fit]"}
{"smiles": "CCCCn1c(N)c(N(CCOC)C(=O)c2ccc(S(=O)(=O)N3CCCCCC3)cc2)c(=O)[nH]c1=O", "Potency": "inconclusive [inhibitor, full curve, poor fit]"}
{"smiles": "Cc1ccc(OCc2cc(C(=O)N3CCC(Oc4cccnc4)CC3)no2)cc1C", "Potency": "inconclusive [inhibitor, partial curve]"}
{"smiles": "Cc1ccc(-c2nnc(Nc3ccc(CC(N)=O)cc3)c3ccccc23)cc1S(=O)(=O)NCC1CCCO1", "note": "(stereo not given)", "Potency": "inactive"}
{"smiles": "Cc1cc(C)n(-c2ccc(C(=O)N3CCN(c4ccccn4)CC3)cc2)n1", "Potency": "inconclusive [inhibitor, full curve, poor fit]"}
{"smiles": "CCOc1ccc(CNC(=O)c2ccccc2NC(=O)C2=CSCCO2)cc1", "Potency": "inconclusive [inhibitor, partial curve, poor fit]"}
{"smiles": "CCNC(=S)N1CCN(S(=O)(=O)/C=C/c2ccccc2)CC1", "Potency": "inconclusive [inhibitor, full curve, poor fit]"}
{"smiles": "COc1ccc(-c2csc(N(C)C(=O)c3ccco3)n2)cc1", "Potency": "inconclusive [inhibitor, full curve, poor fit]"}
{"smiles": "CCc1nc2ccccc2c(C(=O)OCC(=O)Nc2cccc(S(=O)(=O)NC3=NCCCCC3)c2)c1C", "Potency": "inactive"}
{"smiles": "COc1ccc(-c2nc(CS(=O)CC(=O)N3CCc4ccccc4C3)c(C)o2)cc1", "note": "(stereo not given)", "Potency": "inconclusive [inhibitor, partial curve, poor fit]"}
{"smiles": "Cc1n[nH]c(=S)n1/N=C/c1c(O)ccc2ccccc12", "Potency": "inconclusive [inhibitor, full curve, poor fit]"}
{"smiles": "COc1cccc(CNC(=O)C2CCN(c3nnc(-n4c(C)ccc4C)s3)CC2)c1OC", "Potency": "inactive"}
{"smiles": "Cc1ccc(C2=NN(S(C)(=O)=O)C(c3ccc4c(c3)OCO4)C2)cc1", "note": "(stereo not given)", "Potency": "inconclusive [inhibitor, full curve, poor fit]"}
{"smiles": "Cn1c(SCc2nc(-c3cccs3)no2)nnc1C1CCCCC1", "Potency": "inconclusive [inhibitor, partial curve, poor fit]"}
{"smiles": "COc1cc2c(cc1OC)-c1cc(NC3CCCCC3)nc(=O)n1CC2", "Potency": "inconclusive [inhibitor, partial curve, poor fit]"}
{"smiles": "COc1cccc(OC)c1C(=O)NN1CCCCC1", "Potency": "inconclusive [inhibitor, full curve]"}
{"smiles": "CCOc1ccc(N(C)S(=O)(=O)c2ccc(C)c(C(=O)Nc3nnc(C4CC4)s3)c2)cc1", "Potency": "inactive"}
{"smiles": "O=C(c1cccc(F)c1F)N1CCCc2ccccc21", "Potency": "inconclusive [inhibitor, partial curve]"}
{"smiles": "Cc1ccc(C(=O)NCCCn2ccnc2)cc1[N+](=O)[O-]", "Potency": "inconclusive [inhibitor, full curve, poor fit]"}
{"smiles": "CC1CC(C)CN(S(=O)(=O)N2CCC(C(=O)NCCc3ccccc3)CC2)C1", "note": "(stereo not given)", "Potency": "inconclusive [inhibitor, full curve, poor fit]"}
{"smiles": "CCN1C(C(=O)c2ccccc2)=C(OC(=O)c2ccccc2OC)c2ccccc2S1(=O)=O", "Potency": "inconclusive [inhibitor, single point]"}
{"smiles": "CCCCCCSc1ccc([C@H]2N[C@@](Cc3ccccc3)(C(=O)OC)[C@H]3C(=O)N(C)C(=O)[C@@H]23)cc1", "Potency": "inconclusive [inhibitor, full curve, poor fit]"}
{"smiles": "COc1cc(NC(=O)CSc2ncccc2C(=O)OC(C)C)cc(OC)c1", "Potency": "inconclusive [inhibitor, single point]"}
{"smiles": "COc1ccc(CCNC(=O)CS(=O)Cc2nc(-c3ccccc3F)oc2C)cc1OC", "note": "(stereo not given)", "Potency": "inconclusive [inhibitor, full curve, poor fit]"}
{"smiles": "Fc1cccc(CSc2ncnc3c2oc2ccccc23)c1", "Potency": "inconclusive [inhibitor, full curve, poor fit]"}
{"smiles": "Cc1ccc(OCC(=O)Nc2cc(NC(=O)COc3ccc(C)c(C)c3)cc(C(=O)O)c2)cc1C", "Potency": "inactive"}
{"smiles": "CC(=O)Nc1ccc(/C(C)=N/NC(=O)C2CC2c2ccccc2)cc1", "note": "(stereo not given)", "Potency": "inconclusive [inhibitor, single point]"}
{"smiles": "Cc1ccc(-n2c(=O)cc(N3CCN(Cc4ccccc4)CC3)[nH]c2=O)cc1", "Potency": "inconclusive [inhibitor, full curve, poor fit]"}
{"smiles": "Clc1ccc(-c2cc(C3CCNCC3)[nH]n2)cc1", "Potency": "inactive"}
{"smiles": "COc1ccc(OC)c(NC(=O)c2ccccc2N(Cc2ccccc2)S(C)(=O)=O)c1", "Potency": "inactive"}
{"smiles": "O=C1CC(c2ccc(O)cc2)Oc2ccccc21", "note": "(stereo not given)", "Potency": "inactive"}
{"smiles": "Cc1cccc(C)c1OCc1cc(C(=O)NCC2CCCCC2)no1", "Potency": "inconclusive [inhibitor, full curve]"}
{"smiles": "O=C(Oc1ccc(C(=S)N2CCOCC2)cc1)c1ccccc1[N+](=O)[O-]", "Potency": "inconclusive [inhibitor, full curve, poor fit]"}
{"smiles": "O=S1(=O)CCOCCCN1Cc1ccccc1F", "Potency": "inconclusive [inhibitor, partial curve]"}
{"smiles": "CC(=O)C1=C(C)N(c2ccccc2)C(=O)C1(NS(=O)(=O)c1ccc(N)cc1)C(F)(F)F", "note": "(stereo not given)", "Potency": "inconclusive [inhibitor, full curve, poor fit]"}
